± gives the standard deviation of the averaged measurements. Whole data set: some 33,000 sequences, median “E-score (dimensionless, -0.5 to 0.5)” near -0.049, cut for the highest 2% near 0.37. The list shows a part of the results.
Tested on: T1, PmTbr T-box DNA-binding domain (GST fusion)
T1 sequence: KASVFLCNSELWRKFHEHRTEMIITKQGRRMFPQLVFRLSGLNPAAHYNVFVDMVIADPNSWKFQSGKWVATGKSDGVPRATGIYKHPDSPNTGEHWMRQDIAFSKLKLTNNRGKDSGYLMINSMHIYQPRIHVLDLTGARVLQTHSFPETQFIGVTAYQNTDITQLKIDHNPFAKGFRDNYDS
Test: PBM E-score of 8-mer (E-score (dimensionless, -0.5 to 0.5)); Tbr is Tbrain of the sea star Patiria miniata (Pm) or the sea urchin Strongylocentrotus purpuratus (Sp); higher = stronger binding preference; most listed sequences are background and not binding sites
Conditions: the construct has about 5 more residues each side
Outline: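 Universal Agilent oligonucleotide arrays, made double-stranded by primer extension, were incubated with 200 nM GST-fused Tbr T-box DNA-binding domain in PBS (pH 7.5). The protein was expressed in BL21 E. coli at 20 °C and purified by glutathione affinity chromatography. After scanning and quantification, the Universal PBM Analysis Suite assigned an enrichment E-score to each ungapped 8-mer, averaged over duplicate arrays.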

Row | Sequence | PBM E-score of 8-mer
1 | AAACAGTT | 0.072 ± 0.084
2 | GATTGGCC | -0.196 ± 0.029
3 | AATAATGG | -0.255 ± 0.014
4 | TAACTAGA | -0.1774 ± 0.001
5 | CAATCACG | 0.148 ± 0.026
6 | TGTAAGAA | 0.0715 ± 0.045
7 | ATAAACAG | -0.0319 ± 0.083
8 | CGGTTATC | 0.121 ± 0.016
9 | GGTAGATA | -0.223 ± 0.064
10 | AACCCGCT | 0.0617 ± 0.0066
11 | ACTGAATA | -0.11 ± 0.046
12 | TCCGGCAA | 0.0485 ± 0.017
13 | CGAGGTAA | -0.0254 ± 0.017
14 | CTTAGGTA | -0.259 ± 0.019
15 | AGAGACCA | -0.065 ± 0.031
16 | AACGACTA | -0.089 ± 0.0069
17 | ATGATACA | -0.00224 ± 0.0098
18 | AAATACTT | 0.00657 ± 0.095
19 | GGCGTAAC | 0.0918 ± 0.041
20 | ACATACGC | 0.112 ± 0.091
21 | CTATGGGA | -0.062 ± 0.059
22 | AAGTGCCC | -0.143 ± 0.0036
23 | ACCTTTCA | 0.139 ± 0.07
24 | GACGATCC | -0.0686 ± 0.12
25 | ACGCGGCG | 0.0746 ± 0.07

Row | Sequence | PBM E-score of 8-mer
26 | GTCCTAGA | -0.174 ± 0.092
27 | AAACCATG | -0.027 ± 0.02
28 | TGACGTCA | 0.105 ± 0.042
29 | AGAACAGC | -0.0931 ± 0.0076
30 | ATCATAGC | 0.0043 ± 0.09
31 | GAACTACC | -0.196 ± 0.1
32 | CTGCTGAC | 0.0546 ± 0.045
33 | CTAATCTA | -0.00937 ± 0.0061
34 | GAACACGC | 0.106 ± 0.025
35 | ACGCTCAC | 0.183 ± 0.048
36 | GTCAGATA | -0.129 ± 0.093
37 | CTGATTGC | -0.00855 ± 0.036
38 | GATACAGC | -0.197 ± 0.018
39 | TCTTAAGA | -0.108 ± 0.065
40 | CTCGGAGA | -0.275 ± 0.014
41 | AAATCGGG | -0.0434 ± 0.033
42 | ATATCTAA | -0.211 ± 0.025
43 | CTCCAATC | -0.185 ± 0.0044
44 | ATATTGTC | 0.195 ± 0.053
45 | GCCCAACC | -0.0859 ± 0.026
46 | CAGACACG | 0.105 ± 0.062
47 | ATGCTAAG | 0.0339 ± 0.034
48 | AACGTGTG | 0.3941 ± 0.0015
49 | AAGAGCCT | -0.306 ± 0.023
50 | CGCAAAAC | 0.0965 ± 0.0024

Row | Sequence | PBM E-score of 8-mer
51 | ACTGCACT | -0.165 ± 0.03
52 | CACGAATG | -0.00445 ± 0.0028
53 | CTTGAGAC | 0.0337 ± 0.048
54 | CATGACCG | -0.206 ± 0.012
55 | ACGCCTTC | 0.3639 ± 0.0026
56 | AGACCTCT | -0.301 ± 0.015
57 | ATAGGTAA | 0.0508 ± 0.015
58 | AGTTAATA | 0.0455 ± 0.017
59 | AGACAGCT | 0.113 ± 0.035
60 | CTCACCGC | 0.055 ± 0.076
61 | GCACCCGC | 0.333 ± 0.012
62 | CGAATCGC | 0.218 ± 0.0082
63 | AGGGTGAT | 0.197 ± 0.018
64 | ATCCTGCG | -0.157 ± 0.084
65 | TCCTTCCA | -0.232 ± 0.018
66 | CATTATTC | -0.213 ± 0.0042
67 | GGGAAGAA | -0.156 ± 0.046
68 | ATAGGTCG | -0.112 ± 0.028
69 | ACACAAGG | 0.195 ± 0.041
70 | ACTGCACA | 0.142 ± 0.028
71 | CATCGTCG | 0.2049 ± 0.00059
72 | ATGCCCAT | -0.193 ± 0.0043
73 | CGAAGACC | -0.0591 ± 0.03
74 | CTTTGAGC | -0.133 ± 0.048
75 | CTCTTAAG | -0.267 ± 0.032

Row | Sequence | PBM E-score of 8-mer
76 | AGTCGCCA | 0.242 ± 0.01
77 | ATCCCCGG | -0.114 ± 0.02
78 | TCTCGTAA | -0.0267 ± 0.083
79 | GTATTCAC | 0.268 ± 0.06
80 | CCCAGTCG | -0.102 ± 0.12
81 | AAACGTAC | -0.18 ± 0.07
82 | ATGCTACG | 0.0591 ± 0.015
83 | ATACGTAG | -0.345 ± 0.042
84 | GTTCTGCA | -0.122 ± 0.1
85 | AATTTCTG | -0.149 ± 0.053
86 | GAGCATAA | -0.0887 ± 0.028
87 | AAATTTAA | -0.159 ± 0.071
88 | CCGTGCTA | 0.263 ± 0.0013
89 | ACTCAGCC | -0.1209 ± 0.0012
90 | ACGAGCTG | 0.114 ± 0.017
91 | CCATAGGC | -0.139 ± 0.064
92 | CAAGCGCA | 0.048 ± 0.03
93 | CTTCTGAC | 0.141 ± 0.03
94 | ATCACAGG | 0.195 ± 0.099
95 | ACATGAAC | 0.0297 ± 0.026
96 | TGCTCCAA | -0.162 ± 0.04
97 | CCACCAAC | 0.00885 ± 0.0094
98 | TAAAGACA | -0.128 ± 0.051
99 | GAATGCTC | -0.12 ± 0.075
100 | CGCCTCTC | 0.187 ± 0.025

Row | Sequence | PBM E-score of 8-mer
101 | CAGGCTGA | -0.119 ± 0.024
102 | CTCATAAC | -0.0598 ± 0.022
103 | ATGACAAT | 0.165 ± 0.021
104 | ACCGGCGT | 0.0857 ± 0.039
105 | ATGAATGC | -0.116 ± 0.031
106 | TCGCTACA | -0.02702 ± 9.2e-05
107 | TACGGTGA | 0.106 ± 0.093
108 | AGCGGGCC | -0.226 ± 0.039
109 | CGCCCTCC | -0.0753 ± 0.0031
110 | GCCAGGGC | -0.114 ± 0.0025
111 | CTCTGCCC | -0.112 ± 0.049
112 | AAGGACTA | -0.2289 ± 0.0013
113 | CTCAGCAG | -0.0259 ± 0.049
114 | CGTTCACA | 0.406 ± 0.012
115 | CCGAACAA | -0.122 ± 0.0046
116 | AAGGTTGA | -0.15 ± 0.024
117 | CACCAGGA | 0.182 ± 0.057
118 | AATCTAGT | -0.0691 ± 0.096
119 | AGGGGGAA | -0.14 ± 0.053
120 | ACTTCTTC | 0.0862 ± 0.021
121 | TCAGAAAA | -0.0376 ± 0.023
122 | AAGGTCAC | 0.165 ± 0.055
123 | CCTGCTGA | -0.126 ± 0.051
124 | CCCCTCTA | -0.143 ± 0.088
125 | AACTACAG | 0.0297 ± 0.049

Row | Sequence | PBM E-score of 8-mer
126 | GAGCAAGC | -0.0839 ± 0.043
127 | CGTATTAC | -0.104 ± 0.011
128 | GACCCTAA | -0.198 ± 0.066
129 | GAGTTTAA | 0.0862 ± 0.037
130 | CGCTTGAC | -0.0239 ± 0.002
131 | CTCTGAAC | -0.238 ± 0.011
132 | CGGATGAC | -0.104 ± 0.018
133 | ATTCAGGG | -0.0909 ± 0.06
134 | CGCATTGA | 0.0757 ± 0.006
135 | GGTGAAGA | 0.176 ± 0.066
136 | ACTAGCGG | -0.00732 ± 0.0077
137 | ATCGGACG | -0.156 ± 0.042
138 | CAAGGAAA | -0.179 ± 0.088
139 | TAGAGTCA | -0.246 ± 0.062
140 | ATGCTCCC | 0.0205 ± 0.032
141 | GTTTTCCA | -0.278 ± 0.036
142 | TATGTTAA | 0.0273 ± 0.076
143 | GGCCCTGA | -0.1469 ± 0.0011
144 | CGCGACTA | 0.233 ± 0.079
145 | GACGAGAC | 0.0185 ± 0.0037
146 | CGCTCTAA | -0.00311 ± 0.024
147 | AAAAGACT | -0.205 ± 0.034
148 | AATGTCAT | -0.164 ± 0.033
149 | ATACAGCA | -0.0736 ± 0.0022
150 | TACTTGGA | -0.254 ± 0.021

Row | Sequence | PBM E-score of 8-mer
151 | CAGCCGGG | -0.166 ± 0.017
152 | GTGACGGA | 0.272 ± 0.036
153 | CGCAGGAC | -0.117 ± 0.0056
154 | CATATATG | 0.0458 ± 0.1
155 | TAGGCTGA | 0.144 ± 0.026
156 | TAGGGCCA | -0.155 ± 0.032
157 | AAAAGTTG | 0.147 ± 0.072
158 | ACCGTCAG | 0.0687 ± 0.014
159 | CAAACTCA | 0.0123 ± 0.00047
160 | CGCCAATC | 0.151 ± 0.012
161 | CCCACTCG | 0.0373 ± 0.049
162 | ATTAGTTC | -0.177 ± 0.021
163 | ACCTTTCC | -0.121 ± 0.039
164 | CGAGGGGC | -0.073 ± 0.057
165 | ACCTTTTG | 0.236 ± 0.0028
166 | CTCCAGTC | -0.149 ± 0.012
167 | AGTGAGGG | -0.0175 ± 0.1
168 | CGGAAACG | 0.0389 ± 0.027
169 | ACGGCATA | -0.14 ± 0.027
170 | ATCCACTC | -0.224 ± 0.0054
171 | TCGAGCCA | -0.0622 ± 0.038
172 | AACAGTTG | 0.15 ± 0.02

— the supplement of paper PMC4166925
